From article PMC4336329 (PLoS ONE, 2015)
The campaign covered roughly 310,000 compounds. About 14,000 (4.5%) showed an effect of 50% or more. The effect is printed as a negative number. This is one part of the list.

These compounds were tested against human ether-à-go-go-related gene (hERG) potassium channel (human, UniProt Q12809) (assay: primary screen, population patch clamp on CHO cells stably expressing hERG).
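Also: peak tail current of the secondary pulse compared with the same well before compound.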

human ether-à-go-go-related gene (hERG) potassium channel, sequence (Q12809 whole entry, looked up): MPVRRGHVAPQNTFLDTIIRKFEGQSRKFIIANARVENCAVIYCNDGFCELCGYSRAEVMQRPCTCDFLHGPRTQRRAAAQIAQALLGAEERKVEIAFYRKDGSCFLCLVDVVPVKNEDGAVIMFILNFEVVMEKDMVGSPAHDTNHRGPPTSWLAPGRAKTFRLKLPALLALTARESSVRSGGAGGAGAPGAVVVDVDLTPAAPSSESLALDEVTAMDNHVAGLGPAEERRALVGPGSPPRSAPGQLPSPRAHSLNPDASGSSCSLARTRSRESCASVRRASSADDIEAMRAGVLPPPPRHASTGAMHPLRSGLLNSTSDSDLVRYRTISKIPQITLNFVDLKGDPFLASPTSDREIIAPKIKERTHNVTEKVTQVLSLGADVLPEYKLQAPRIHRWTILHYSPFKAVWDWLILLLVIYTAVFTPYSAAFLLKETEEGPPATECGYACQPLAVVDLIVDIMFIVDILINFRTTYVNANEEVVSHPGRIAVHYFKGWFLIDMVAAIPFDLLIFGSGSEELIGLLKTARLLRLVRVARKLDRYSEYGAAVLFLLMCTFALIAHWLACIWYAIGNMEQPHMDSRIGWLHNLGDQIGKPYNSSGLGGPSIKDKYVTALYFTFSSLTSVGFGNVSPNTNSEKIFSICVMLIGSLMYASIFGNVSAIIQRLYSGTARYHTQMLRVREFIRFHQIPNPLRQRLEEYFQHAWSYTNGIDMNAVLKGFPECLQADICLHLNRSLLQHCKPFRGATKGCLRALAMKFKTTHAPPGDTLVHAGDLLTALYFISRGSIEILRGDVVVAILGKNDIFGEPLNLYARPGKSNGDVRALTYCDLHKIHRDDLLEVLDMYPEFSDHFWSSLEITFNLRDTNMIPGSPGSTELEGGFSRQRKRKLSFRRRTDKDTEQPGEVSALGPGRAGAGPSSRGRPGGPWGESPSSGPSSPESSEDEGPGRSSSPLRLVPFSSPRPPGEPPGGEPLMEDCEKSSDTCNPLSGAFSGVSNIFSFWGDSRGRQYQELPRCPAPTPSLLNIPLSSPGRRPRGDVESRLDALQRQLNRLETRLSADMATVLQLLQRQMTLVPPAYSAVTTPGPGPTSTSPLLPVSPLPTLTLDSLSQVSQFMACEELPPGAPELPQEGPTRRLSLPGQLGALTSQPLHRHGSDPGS

Question: `O=C(CN1C(=O)NC2(CCCC2)C1=O)N1CCN(S(=O)(=O)c2ccc(Cl)cc2)CC1` was tested. Which “hERG current change (%, negative = inhibition) at 10uM” value did it give?
Answer: 8.2%

Question: How did the “hERG current change (%, negative = inhibition) at 10uM” value turn out when `COc1cccc(Oc2ccc(N)cc2)c1` was run?
Answer: -1.18%

Question: How did the “hERG current change (%, negative = inhibition) at 10uM” value turn out when `Cc1ccc2nc(SCC(=O)NC3CC3)[nH]c2c1` was run?
Answer: 15.1%

Question: How did the “hERG current change (%, negative = inhibition) at 10uM” value turn out when `Cc1c(Cl)c([N+](=O)[O-])nn1CCCC(=O)Nc1cccc(Cl)c1Cl` was run?
Answer: -10.4%

Question: How did the “hERG current change (%, negative = inhibition) at 10uM” value turn out when `O=C(CN1C(=O)C2C3C=CC(C3)C2C1=O)N1CCc2ccccc2C1` (stereo not shown) was run?
Answer: 5.21%

Question: With `Br.CCOc1ccc(-c2csc(NNC3=NCCCCC3)n2)cc1` as the compound, how does the “hERG current change (%, negative = inhibition) at 10uM” value read?
Answer: -21.7%

Question: For `CCCCC(=O)N(CCOC)c1nnc(-c2cccnc2)s1`, which “hERG current change (%, negative = inhibition) at 10uM” value is on record?
Answer: 5.92%

Question: How did the “hERG current change (%, negative = inhibition) at 10uM” value turn out when `Br.COc1ccc(Nc2nc(-c3sc(NC(C)=O)nc3C)cs2)cc1` was run?
Answer: 3.32%

Question: How did the “hERG current change (%, negative = inhibition) at 10uM” value turn out when `CC(C)=CC(=O)N1CCC(N2CCC(C(=O)N3CCOCC3)CC2)CC1` was run?
Answer: 28.3%

Question: `N#Cc1ccccc1NC(=O)CSc1nnc(-c2ccccc2)n1-c1ccccc1` was tested. Which “hERG current change (%, negative = inhibition) at 10uM” value did it give?
Answer: 2.09%

Question: With `Cc1nn(CCO)c(C)c1Oc1ccccc1O` as the compound, how does the “hERG current change (%, negative = inhibition) at 10uM” value read?
Answer: 12.3%

Question: With `Cc1ccsc1C1C(C#N)=C(N)Oc2n[nH]c(C)c21` (stereo not shown) as the compound, how does the “hERG current change (%, negative = inhibition) at 10uM” value read?
Answer: 18.7%

Question: `CCC(C)N(C(=O)Cn1nnc(-c2ccc(F)cc2)n1)C1CCS(=O)(=O)C1` (stereo not shown) was tested. Which “hERG current change (%, negative = inhibition) at 10uM” value did it give?
Answer: -3.45%

Question: How did the “hERG current change (%, negative = inhibition) at 10uM” value turn out when `O=C(CN1C(=O)CSc2ccc(S(=O)(=O)N3CCCCC3)cc21)NCc1ccccc1Cl` was run?
Answer: -15.1%

Question: With `Cc1cc(C)n2nc(CC(=O)NNC(=O)c3ccc(N(C)C)cc3)nc2n1` as the compound, how does the “hERG current change (%, negative = inhibition) at 10uM” value read?
Answer: 26.2%

Question: `COC(=O)c1c(NC(=O)Cc2ccccc2)sc2c1CCN(C(C)C)C2.Cl` was tested. Which “hERG current change (%, negative = inhibition) at 10uM” value did it give?
Answer: -61.4%

Question: For `Nc1c(C(=O)CSc2nc3ccccc3o2)c(=O)[nH]c(=O)n1C1CC1`, which “hERG current change (%, negative = inhibition) at 10uM” value is on record?
Answer: 5.38%

Question: `CN(C)C(=O)c1cn(CCC#N)nc1-c1ccc2ccccc2c1` was tested. Which “hERG current change (%, negative = inhibition) at 10uM” value did it give?
Answer: 19.2%

Question: How did the “hERG current change (%, negative = inhibition) at 10uM” value turn out when `CCc1ccc(NC(=O)C(C)OC(=O)c2ccc(N3CCCC3)c([N+](=O)[O-])c2)cc1` (stereo not shown) was run?
Answer: -0.741%

Question: How did the “hERG current change (%, negative = inhibition) at 10uM” value turn out when `O=C(Cn1cc(C(=O)c2cccs2)c2ccccc21)NCc1cccs1` was run?
Answer: -14%

Question: How did the “hERG current change (%, negative = inhibition) at 10uM” value turn out when `CCc1nnc(SCC(=O)Nc2nnc(C)s2)n1CC1CCCO1` (stereo not shown) was run?
Answer: 2.08%

Question: `CN(C)c1ccc(C2=NOC(CN3C(=O)c4ccccc4S3(=O)=O)C2)cc1` (stereo not shown) was tested. Which “hERG current change (%, negative = inhibition) at 10uM” value did it give?
Answer: 11.8%

Question: Which “hERG current change (%, negative = inhibition) at 10uM” value does the source give for `COc1ccccc1-c1cc(C(=O)NC(C)c2ccccc2)no1` (stereo not shown) here?
Answer: 9.56%

Question: For `CC1CCCN(C(=S)SCC(=O)O)C1` (stereo not shown), which “hERG current change (%, negative = inhibition) at 10uM” value is on record?
Answer: 19.3%

Question: With `CCN1C(=O)[C@H]2[C@@H](c3ccc(C)cc3)N3C(=O)N(c4ccc(C)cc4)C(=O)[C@@]3(CC)[C@H]2C1=O` as the compound, how does the “hERG current change (%, negative = inhibition) at 10uM” value read?
Answer: 9.31%

Question: For `COc1ccc(-n2nc3ccccc3n2)cc1`, which “hERG current change (%, negative = inhibition) at 10uM” value is on record?
Answer: -17.5%

Question: With `CC(C)CCOc1ccccc1C(N)=O` as the compound, how does the “hERG current change (%, negative = inhibition) at 10uM” value read?
Answer: 14.4%

Question: For `Nc1c(C(=O)NCc2ccco2)nnn1CC(=O)Nc1ccc2c(c1)OCO2`, which “hERG current change (%, negative = inhibition) at 10uM” value is on record?
Answer: -46%

Question: For `O=C(NCc1ccncc1)Nc1cccc([N+](=O)[O-])c1`, which “hERG current change (%, negative = inhibition) at 10uM” value is on record?
Answer: -17.2%

Question: Which “hERG current change (%, negative = inhibition) at 10uM” value does the source give for `O=C(Nc1ccccn1)Nc1ccccc1Cl` here?
Answer: 23.2%

Question: With `CCC(CC)C(=O)N=C1SC2CS(=O)(=O)CC2N1CCc1ccc(OC)c(OC)c1` (stereo not shown) as the compound, how does the “hERG current change (%, negative = inhibition) at 10uM” value read?
Answer: -10.7%

Question: With `CCCn1c(SCC(=O)Nc2cc(S(=O)(=O)N3CCOCC3)ccc2OC)n[nH]c1=O` as the compound, how does the “hERG current change (%, negative = inhibition) at 10uM” value read?
Answer: 14.1%

Question: How did the “hERG current change (%, negative = inhibition) at 10uM” value turn out when `C=CC[n+]1c(-c2ccc(Cl)cc2Cl)csc1Nc1ccc(NC(C)=O)cc1.[Cl-]` was run?
Answer: 8.41%

Question: Which “hERG current change (%, negative = inhibition) at 10uM” value does the source give for `CC(C)(C)C(=O)N1N=C(c2ccc(NS(C)(=O)=O)cc2)CC1c1cccs1` (stereo not shown) here?
Answer: -18.6%

Question: Which “hERG current change (%, negative = inhibition) at 10uM” value does the source give for `FC(F)(F)c1cccc(N/N=C/c2ccccc2)c1` here?
Answer: -2.54%

Question: How did the “hERG current change (%, negative = inhibition) at 10uM” value turn out when `Cc1cc(-c2nnc(SCC(=O)Nc3ccccc3)n2C)no1` was run?
Answer: 4.56%

Question: Which “hERG current change (%, negative = inhibition) at 10uM” value does the source give for `C=CCn1c(SCC(=O)Nc2c(C)nn(Cc3ccccc3)c2C)nnc1C(O)c1ccccc1` (stereo not shown) here?
Answer: -1.47%

Question: `CSc1ccccc1NC(=O)COC(=O)Cc1cccs1` was tested. Which “hERG current change (%, negative = inhibition) at 10uM” value did it give?
Answer: -2.26%

Question: For `Cc1ccccc1Cn1nnc(C(=O)Nc2cccc(C)c2C)c1N`, which “hERG current change (%, negative = inhibition) at 10uM” value is on record?
Answer: -18.1%

Question: With `Cc1cc(C(F)F)n2nc(C(=O)Nc3cc(C)on3)nc2n1` as the compound, how does the “hERG current change (%, negative = inhibition) at 10uM” value read?
Answer: -6.44%

Question: `CCOC(=O)c1sc(-c2ccc(Br)cc2)cc1N` was tested. Which “hERG current change (%, negative = inhibition) at 10uM” value did it give?
Answer: -8.65%

Question: With `CCC(=O)c1cn(CC(=O)Nc2ccc(C)cc2)c2ccccc12` as the compound, how does the “hERG current change (%, negative = inhibition) at 10uM” value read?
Answer: 8.39%

Question: Which “hERG current change (%, negative = inhibition) at 10uM” value does the source give for `CSc1ccc(-c2nc(CN3CCCCC3c3cccnc3)c(C)o2)cc1` (stereo not shown) here?
Answer: -19.8%

Question: For `CCN(CC)S(=O)(=O)c1cccc(NC(=O)c2cncc(Br)c2)c1`, which “hERG current change (%, negative = inhibition) at 10uM” value is on record?
Answer: -69.9%

Question: `COc1cc(C2C(C(=O)c3ccco3)=C(O)C(=O)N2c2cc(C)on2)ccc1OCc1ccccc1` (stereo not shown) was tested. Which “hERG current change (%, negative = inhibition) at 10uM” value did it give?
Answer: 19.8%

Question: For `O=C(CNc1cc(S(=O)(=O)N2CCOCC2)ccc1NCC1CCCO1)Nc1ccccc1F` (stereo not shown), which “hERG current change (%, negative = inhibition) at 10uM” value is on record?
Answer: -15.4%

Question: With `CC(=O)c1cccc(NC(=O)/C(=C\c2cccnc2)NC(=O)c2ccc(C)cc2)c1` as the compound, how does the “hERG current change (%, negative = inhibition) at 10uM” value read?
Answer: -8.57%

Question: With `O=c1c2cc(N3CCOCC3)ccc2[nH]c(=S)n1CCCN1CCCCCC1` as the compound, how does the “hERG current change (%, negative = inhibition) at 10uM” value read?
Answer: -17%

Question: With `COc1cc2c(cc1OC)CN(C(=S)NC(=O)c1ccccc1)CC2` as the compound, how does the “hERG current change (%, negative = inhibition) at 10uM” value read?
Answer: 1.3%

Question: Which “hERG current change (%, negative = inhibition) at 10uM” value does the source give for `COc1ccc(NC(=O)C2CCN(S(=O)(=O)c3ccc(N4CCCC4=O)cc3)CC2)cc1OC` here?
Answer: 17.4%

Question: For `COc1ccc(/C=N\NC(=O)CNC(=O)C2COc3ccccc3O2)cc1[N+](=O)[O-]` (stereo not shown), which “hERG current change (%, negative = inhibition) at 10uM” value is on record?
Answer: -73.8%

Question: Which “hERG current change (%, negative = inhibition) at 10uM” value does the source give for `CCc1ccccc1N(CC(=O)NC(C)(C)CC)C(=O)CCC(=O)Nc1nccs1` here?
Answer: -18.3%

Question: With `CCOc1ccc(C2c3c(oc4ccccc4c3=O)C(=O)N2c2ccc(C)cn2)cc1OC` (stereo not shown) as the compound, how does the “hERG current change (%, negative = inhibition) at 10uM” value read?
Answer: -20.8%

Question: How did the “hERG current change (%, negative = inhibition) at 10uM” value turn out when `O=C(NCC(c1ccco1)N1CCCC1)c1cccc(S(=O)(=O)Nc2ccc(Br)cc2)c1` (stereo not shown) was run?
Answer: -4.63%

Question: With `CCN(CC(=O)Nc1sc2c(c1C#N)CCC(C)C2)CC(=O)NC1CCS(=O)(=O)C1` (stereo not shown) as the compound, how does the “hERG current change (%, negative = inhibition) at 10uM” value read?
Answer: -20.9%
